Assay results from ChEMBL document CHEMBL4619742, “Synthesis and evaluation of 7-azaindole derivatives bearing benzocycloalkanone motifs as protein kinase inhibitors” (Bioorg Med Chem, 2020).

Tests used:
Leishmania major = experiment: Residual activity of leishmania major CK1 at 1 uM using RRKHAAIGSpAYSIT as substrate in presence of ATP incubated for 50 mins by ADP-GloTM assay relative to control
[1] = molecular target: CDK2/Cyclin A2 (Homo sapiens) (UniProt P24941+P20248); experiment: Inhibition of human CDK2/Cyclin A assessed as residual activity at 1 uM using Histone 1 as substrate in presence of ATP incubated for 50 mins by ADP-GloTM assay relative to control; values are per cent of control
[2] = molecular target: Casein kinase 1, delta tv1 (Sus scrofa) (UniProt M3VH47); experiment: Inhibition of porcine CK1-delta assessed as residual activity at 1 uM using RRKHAAIGSpAYSITA as substrate in presence of ATP incubated for 30 mins by ADP-GloTM assay relative to control; values are per cent of control; conditions: Sus scrofa domesticus
[3] = molecular target: Serine/threonine-protein kinase pim-1 (Homo sapiens) (UniProt P11309); experiment: Inhibition of human recombinant PIM1 expressed in bacteria assessed as residual activity at 1 uM using Histone 1 as substrate in presence of ATP incubated for 30 mins by ADP-GloTM assay relative to control; values are per cent of control
[4] = molecular target: Glycogen synthase kinase-3 (Sus scrofa) (UniProt B2LUN4+I6LNT8); experiment: Inhibition of porcine GSK3-alpha/GSK3-Beta assessed as residual activity at 1 uM using RAAVPPSPSLSRHSSPHQSpEDEEE as substrate in presence of ATP incubated for 50 mins by ADP-GloTM assay relative to control; values are per cent of control; conditions: Sus scrofa domesticus
[5] = molecular target: Cyclin-dependent kinase 5/CDK5 activator 1 (Homo sapiens) (UniProt Q00535+Q15078); experiment: Inhibition of human recombinant CDK5/p25 expressed in bacteria assessed as residual activity at 1 uM using Histone 1 as substrate in presence of ATP incubated for 50 mins by ADP-GloTM assay relative to control; values are per cent of control

Structure (SMILES) | residual activity (Leishmania major) [%] | residual activity [1] [%] | residual activity [2] [%] | residual activity [3] [%] | residual activity [4] [%] | residual activity [5] [%]
O=C1/C(=C/c2c[nH]c3ncccc23)Oc2cc(O)ccc21 | 70 | 69 | 64 | 73 | 35 | 87
COc1ccc2c(c1)C/C(=C\c1c[nH]c3ncccc13)C2=O | 79 | > 100 | 84 | 99 | 36 | > 100
O=C1/C(=C/c2c[nH]c3ncccc23)CCc2cc(O)ccc21 | 64 | 94 | 66 | 72 | 37 | 89
O=Cc1c[nH]c2ncccc12 | 61 | > 100 | 61 | > 100 | 91 | > 100
COc1ccc2c(c1)CC/C(=C\c1c[nH]c3ncccc13)C2=O | 57 | 84 | 83 | > 100 | 81 | 86
O=C1/C(=C\c2c[nH]c3ncccc23)CSc2ccccc21 | 96 | > 100 | 80 | 97 | 66 | 77
O=C1/C(=C/c2c[nH]c3ncccc23)Cc2cc3c(cc21)OCO3 | 71 | > 100 | 77 | 90 | 42 | 89
COc1ccc2c(c1)C(=O)/C(=C/c1c[nH]c3ncccc13)CC2 | 76 | > 100 | 92 | 94 | > 100 | > 100
COc1cc2c(cc1OC)C(=O)/C(=C/c1c[nH]c3ncccc13)CC2 | 83 | > 100 | 86 | > 100 | 92 | > 100
COc1cc2c(cc1OC)C(=O)/C(=C/c1c[nH]c3ncccc13)C2 | 90 | > 100 | 68 | > 100 | 49 | > 100
O=C1/C(=C/c2c[nH]c3ncccc23)Cc2ccccc21 | 89 | 82 | 79 | 91 | 45 | 98
O=C1/C(=C/c2c[nH]c3ncccc23)CCc2ccccc21 | 84 | 70 | 76 | 98 | 42 | 85
